In the supplement of paper PMC10126150 one finds switch fluorescence ratio data, which are given here for 120 sequences.

Values marked as one replicate rest on one cluster of the flow cell; about a third of the high ones do not repeat.
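Further: ATP exposure 15 min at 22 °C before imaging.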

The data set has as its system ATP. The data set can be described thus: switch fluorescence ratio, 500 uM ATP over buffer (Cy3 cluster intensity, sum of 5 cycles each) (fold (ratio)); higher = stronger signal-on switching upon ATP binding; sequences stand for … in TCGTCGGCAGCGTCAGATGTGTATAAGAGACAGTTTTTTTTTTTTTTTTTTTTTTTTT…TC. The following applies: aptamer strand: ATP DNA aptamer (quencher-CACCTGGGGGAGTATTGCGGAGGAAGG + anchor), 100 nM annealed; ATP concentration: 500 uM; one replicate. The essentials:
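Cy3-labelled switching-strand clusters on a modified Illumina MiSeq flow-cell were annealed to 100 nM quencher-labelled ATP aptamer, imaged in selection buffer, then imaged after 15 min with 500 uM ATP at 22 °C. Five buffer/ATP cycles ran, with NaOH stripping and re-annealing between them. The fluorescence ratio is summed target-cycle over summed buffer-cycle Cy3 intensity per cluster, averaged per switch-domain sequence. Clusters outside 100-1000 RFU were excluded.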
Consider CGAGCCTCCT, for which the switch fluorescence ratio stood at 1.08.

As to TATGGGCGCA, the switch fluorescence ratio amounted to 1.07.

With TCATCTGAGG, the switch fluorescence ratio came to 1.

Consider GCTGGTGGAG, for which the switch fluorescence ratio was found to be 0.983.

For the sequence GTATCCGATG, the switch fluorescence ratio came out at 1.02.

As to GTGGTTAAGG, the switch fluorescence ratio amounted to 0.959.

Turning to TATACGAC, the switch fluorescence ratio was found to be 1.2.

Take TTCTTTTGCG: the switch fluorescence ratio turned out to be 0.981.

GTTTTGAGTA: the switch fluorescence ratio amounted to 1.01.

Turning to TAAGGACAGC, the switch fluorescence ratio came out at 1.01.

For the sequence TTTGTTCAGC, the switch fluorescence ratio was determined as 0.952.

As to CGGTATGAAC, the switch fluorescence ratio was found to be 1.01.

On to AACTCGATGG, for which the switch fluorescence ratio was 0.957.

Regarding CCAGGAATC, the switch fluorescence ratio is 1.31.

ACCGGAAGG: the switch fluorescence ratio was 1.02.

For the sequence ATCTGCGTGG, the switch fluorescence ratio was 0.99.

With ATGAGGTTCG, the switch fluorescence ratio worked out at 0.966.

On to GGTTCCAAG, for which the switch fluorescence ratio is 1.01.

In the case of CGTTGGACTT, the switch fluorescence ratio was 0.996.

For GAATCGTCTA, the switch fluorescence ratio is 0.991.

Turning to GGGAGAGGT, the switch fluorescence ratio stood at 0.964.

As for CACATAATAG, the switch fluorescence ratio is 1.02.

Regarding AATATACATA, the switch fluorescence ratio came out at 1.08.

AGTCAACTGT: the switch fluorescence ratio was found to be 1.01.

CTGCGGTAAC: the switch fluorescence ratio is 1.96.

Take CTAATGTGGG: the switch fluorescence ratio amounted to 0.951.

For the sequence GCAATAATCC, the switch fluorescence ratio came out at 2.6.

As for TATATAGA, the switch fluorescence ratio stood at 0.998.

For ACTCAAAAAC, the switch fluorescence ratio worked out at 1.81.

ATTTCGAGAT: the switch fluorescence ratio worked out at 1.01.

Take GACAATGTCC: the switch fluorescence ratio stood at 1.02.

On to AGGGGCATGA, for which the switch fluorescence ratio was found to be 0.987.

Consider TTAACAGCTC, for which the switch fluorescence ratio is 1.03.

Turning to AAAGATTCGT, the switch fluorescence ratio turned out to be 1.02.

In the case of CACAGTGGAT, the switch fluorescence ratio came to 0.994.

Turning to ACAGTTCGGA, the switch fluorescence ratio was found to be 0.941.

ACTTCGCCGG: the switch fluorescence ratio is 1.11.

CCAAGGAGCC: the switch fluorescence ratio was determined as 1.02.

As to TAAATGCGTG, the switch fluorescence ratio was 1.01.

On to TGGCGAGGGC, for which the switch fluorescence ratio was determined as 1.01.

On to CTCATCCCTT, for which the switch fluorescence ratio was 1.05.

For TCTCGCATGT, the switch fluorescence ratio worked out at 1.54.

Take GTGGCATAGG: the switch fluorescence ratio is 0.996.

Take TCCCGTGTGC: the switch fluorescence ratio came to 1.27.

CAGGTCAGAT: the switch fluorescence ratio amounted to 0.993.

Regarding ACCAGGCACT, the switch fluorescence ratio came to 1.11.

As for ATGGTTCCCA, the switch fluorescence ratio is 0.97.

For the sequence TTTACGGT, the switch fluorescence ratio amounted to 1.02.

On to TTGAGCGAAG, for which the switch fluorescence ratio came out at 1.01.

Take AGTCACGGAG: the switch fluorescence ratio turned out to be 0.982.

For the sequence GCCAATATAG, the switch fluorescence ratio turned out to be 1.1.

As to GGGTGTAACA, the switch fluorescence ratio came to 0.995.

Regarding CTTATGGTCG, the switch fluorescence ratio came out at 1.02.

TTAGTGCAT: the switch fluorescence ratio was determined as 0.957.

On to GCTAGCCCCG, for which the switch fluorescence ratio came out at 1.04.

As for AGACGCTGAT, the switch fluorescence ratio was 1.05.

Turning to CTGGGCGCCT, the switch fluorescence ratio was found to be 1.04.

As for CGCCCCTCGT, the switch fluorescence ratio was determined as 1.12.

On to TTACTTAGTG, for which the switch fluorescence ratio came to 1.04.

For the sequence CGGGGTTAA, the switch fluorescence ratio amounted to 0.974.

With CCACGGTTGG, the switch fluorescence ratio came out at 0.972.

With TAGCGCAGCC, the switch fluorescence ratio was found to be 0.992.

With CTAAATCTGG, the switch fluorescence ratio came to 0.987.

TCAATTGAGT: the switch fluorescence ratio was determined as 1.01.

Take CAATACTGAA: the switch fluorescence ratio stood at 1.04.

AGATACGTCA: the switch fluorescence ratio stood at 1.08.

For the sequence AGGGCACGAA, the switch fluorescence ratio was 1.01.

Regarding CCCAGCCTCT, the switch fluorescence ratio was found to be 1.02.

In the case of AATAGTAGAT, the switch fluorescence ratio amounted to 0.975.

As to ATGTAAGATG, the switch fluorescence ratio amounted to 1.03.

In the case of CTAACGTAAA, the switch fluorescence ratio is 1.11.

Take GACAGAATTC: the switch fluorescence ratio was determined as 0.98.

GGGGCGGATC: the switch fluorescence ratio amounted to 0.958.

Turning to TGACTTTCTT, the switch fluorescence ratio is 0.985.

As to AGCGTTTTCT, the switch fluorescence ratio turned out to be 1.05.

For CAGTACGTCC, the switch fluorescence ratio stood at 1.03.

With GGCCTGCGCA, the switch fluorescence ratio turned out to be 1.05.

On to CATGTGGCGT, for which the switch fluorescence ratio turned out to be 0.979.

For TAGACGTG, the switch fluorescence ratio is 1.04.

Take CGAAATGTGG: the switch fluorescence ratio stood at 1.

As for CCGGGGTAAT, the switch fluorescence ratio was 1.83.

With CATTTGTGCT, the switch fluorescence ratio was found to be 0.959.

Turning to GATCGCCTGA, the switch fluorescence ratio worked out at 0.984.

Regarding CGTGTAATGA, the switch fluorescence ratio worked out at 0.987.

With GGGTATCCGC, the switch fluorescence ratio worked out at 1.08.

TCAGATGGTC: the switch fluorescence ratio turned out to be 0.995.

Take GATTGGCGGT: the switch fluorescence ratio is 1.02.

Take TCGGGGAGGG: the switch fluorescence ratio worked out at 0.963.

Turning to AGGGATAAT, the switch fluorescence ratio was 1.05.

On to TTACTTGGCG, for which the switch fluorescence ratio stood at 1.02.

For TGATTAAATG, the switch fluorescence ratio was found to be 1.07.

For the sequence AAATACCTAA, the switch fluorescence ratio was determined as 1.05.

With GGCTTGGATA, the switch fluorescence ratio is 1.02.

For CTATCGGTTT, the switch fluorescence ratio worked out at 0.982.

In the case of CAATTCCTAA, the switch fluorescence ratio was 1.

In the case of GCGACTGCAA, the switch fluorescence ratio is 1.25.

Consider CCTTTCTGCC, for which the switch fluorescence ratio was 1.06.

Consider ACGACACT, for which the switch fluorescence ratio worked out at 1.85.

Consider ATTTTACAGA, for which the switch fluorescence ratio is 1.04.

With TCGGAGTTT, the switch fluorescence ratio was 0.978.

Consider GGCCTACTTT, for which the switch fluorescence ratio worked out at 1.

For the sequence CAAGCGCTCG, the switch fluorescence ratio was 0.961.

Turning to AAGGCTCATT, the switch fluorescence ratio came out at 0.98.

On to GGTGTGCCAC, for which the switch fluorescence ratio is 0.98.

AACCTGTGGC: the switch fluorescence ratio stood at 0.981.

With CTTATCCACG, the switch fluorescence ratio came to 1.05.

Regarding GTGGACGTTA, the switch fluorescence ratio was 1.04.

Take TGCCCGGGTT: the switch fluorescence ratio was determined as 1.

For CAAATGTTAC, the switch fluorescence ratio turned out to be 1.05.

In the case of TTCGTTAAAT, the switch fluorescence ratio is 0.996.

On to TATGAGTAAA, for which the switch fluorescence ratio was determined as 1.

Take AAGGGGGACG: the switch fluorescence ratio was determined as 0.986.

Turning to GTTTTCAGT, the switch fluorescence ratio came to 0.982.

Take CAAGGGCTGC: the switch fluorescence ratio is 1.03.

CTGTCTAAGT: the switch fluorescence ratio was found to be 1.03.

As to CGAGAGATTA, the switch fluorescence ratio amounted to 1.01.

Take GGCTGGTTGT: the switch fluorescence ratio is 1.

With TCAAAGAAGA, the switch fluorescence ratio is 0.979.

With CCGGGCGTTG, the switch fluorescence ratio worked out at 0.998.

Consider CTTTGGCTAC, for which the switch fluorescence ratio was 2.08.
